According to article PMC12820563, “FoxP3 forms a head-to-head dimer in vivo and stabilizes its multimerization on adjacent microsatellites”:
The other results are listed elsewhere or left out.

Each sequence was assayed against T1, MBP-FoxP1dN (Mus musculus, UniProt P58462 326-579) (assay: PD-seq (MBP pull-down with sequencing); 20 mM Tris-HCl pH 7.5, 100 mM NaCl, 1.5 mM MgCl2, 0.4 uM protein, 0.1 uM dsDNA library, 30 min, room temperature, amylose pull-down; high values mean tight binding). Conditions: protein: recombinant; tags: His6-MBP; chain copies: 2; dsDNA, one strand shown.
T1 sequence: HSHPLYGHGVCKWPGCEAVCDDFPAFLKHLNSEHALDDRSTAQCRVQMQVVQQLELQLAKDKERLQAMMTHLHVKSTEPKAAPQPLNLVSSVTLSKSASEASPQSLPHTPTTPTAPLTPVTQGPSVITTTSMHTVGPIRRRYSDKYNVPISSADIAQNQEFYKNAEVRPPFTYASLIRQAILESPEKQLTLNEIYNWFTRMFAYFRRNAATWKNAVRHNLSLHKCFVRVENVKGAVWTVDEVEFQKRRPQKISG
How it was run: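 Binding is given as reads-per-million enrichment, pull-down over input, with replicates pooled. The bait was an N-terminus-lacking mouse FoxP3 or FoxP1 fragment with a His6-MBP tag, expressed in E. coli and used at 0.4 µM with 0.1 µM Klenow-filled degenerate double-stranded DNA library for 30 min at room temperature in Tris pH 7.5 buffer with NaCl and MgCl2. Amylose resin pull-down with three washes was followed by proteinase K release, PCR barcoding and Illumina sequencing.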

Sequence	binding signal
GATGATTGTTCTCCCAGCTGATGAATTTATGAATTCGAGTAAACAAATTTTCCTAATCTTTCTGTTCAAGCGCCATCTAC	1.31 RPM ratio (pull-down/input)
GATGATTGTTCTCCCAGCTGATGAATTCATATGATCGAGTAAACAAATTTTCCTAATCTTTCTGTTCAAGCGCCATCTAC	0.969 RPM ratio (pull-down/input)
GATGATTGTTCTCCCAGCTGATGAATTCGGCATGTCGAGTAAACAAATTTTCCTAATCTTTCTGTTCAAGCGCCATCTAC	0.904 RPM ratio (pull-down/input)
GATGATTGTTCTCCCAGCTGATGAATTTCGGAACTCGAGTAAACAAATTTTCCTAATCTTTCTGTTCAAGCGCCATCTAC	0.799 RPM ratio (pull-down/input)
GATGATTGTTCTCCCAGCTGATGAATTTCCCCACTCGAGTAAACAAATTTTCCTAATCTTTCTGTTCAAGCGCCATCTAC	0.835 RPM ratio (pull-down/input)
GATGATTGTTCTCCCAGCTGATGAATTTATAACTTCGAGTAAACAAATTTTCCTAATCTTTCTGTTCAAGCGCCATCTAC	1.05 RPM ratio (pull-down/input)
GATGATTGTTCTCCCAGCTGATGAATTTGAATCTTCGAGTAAACAAATTTTCCTAATCTTTCTGTTCAAGCGCCATCTAC	0.914 RPM ratio (pull-down/input)
GATGATTGTTCTCCCAGCTGATGAATTGCTGATATCGAGTAAACAAATTTTCCTAATCTTTCTGTTCAAGCGCCATCTAC	1.2 RPM ratio (pull-down/input)
GATGATTGTTCTCCCAGCTGATGAATTAACCGATTCGAGTAAACAAATTTTCCTAATCTTTCTGTTCAAGCGCCATCTAC	0.902 RPM ratio (pull-down/input)
GATGATTGTTCTCCCAGCTGATGAATTGGGCCTATCGAGTAAACAAATTTTCCTAATCTTTCTGTTCAAGCGCCATCTAC	0.908 RPM ratio (pull-down/input)
GATGATTGTTCTCCCAGCTGATGAATTGTATACTTCGAGTAAACAAATTTTCCTAATCTTTCTGTTCAAGCGCCATCTAC	1.68 RPM ratio (pull-down/input)
GATGATTGTTCTCCCAGCTGATGAATTGATGGCATCGAGTAAACAAATTTTCCTAATCTTTCTGTTCAAGCGCCATCTAC	1.15 RPM ratio (pull-down/input)
GATGATTGTTCTCCCAGCTGATGAATTGCCGAGGTCGAGTAAACAAATTTTCCTAATCTTTCTGTTCAAGCGCCATCTAC	0.811 RPM ratio (pull-down/input)
GATGATTGTTCTCCCAGCTGATGAATTAATTTGTTCGAGTAAACAAATTTTCCTAATCTTTCTGTTCAAGCGCCATCTAC	1.13 RPM ratio (pull-down/input)
GATGATTGTTCTCCCAGCTGATGAATTGACTCTCTCGAGTAAACAAATTTTCCTAATCTTTCTGTTCAAGCGCCATCTAC	0.985 RPM ratio (pull-down/input)
GATGATTGTTCTCCCAGCTGATGAATTCTTATGGTCGAGTAAACAAATTTTCCTAATCTTTCTGTTCAAGCGCCATCTAC	0.974 RPM ratio (pull-down/input)
GATGATTGTTCTCCCAGCTGATGAATTCTAAACATCGAGTAAACAAATTTTCCTAATCTTTCTGTTCAAGCGCCATCTAC	2.07 RPM ratio (pull-down/input)
GATGATTGTTCTCCCAGCTGATGAATTTACATCATCGAGTAAACAAATTTTCCTAATCTTTCTGTTCAAGCGCCATCTAC	1.5 RPM ratio (pull-down/input)
GATGATTGTTCTCCCAGCTGATGAATTTAAGTAGTCGAGTAAACAAATTTTCCTAATCTTTCTGTTCAAGCGCCATCTAC	0.942 RPM ratio (pull-down/input)
GATGATTGTTCTCCCAGCTGATGAATTGAGAGGTTCGAGTAAACAAATTTTCCTAATCTTTCTGTTCAAGCGCCATCTAC	0.733 RPM ratio (pull-down/input)

Sequence	binding signal
GATGATTGTTCTCCCAGCTGATGAATTCGATTTTTCGAGTAAACAAATTTTCCTAATCTTTCTGTTCAAGCGCCATCTAC	0.928 RPM ratio (pull-down/input)
GATGATTGTTCTCCCAGCTGATGAATTGATACGGTCGAGTAAACAAATTTTCCTAATCTTTCTGTTCAAGCGCCATCTAC	0.934 RPM ratio (pull-down/input)
GATGATTGTTCTCCCAGCTGATGAATTTAGATATTCGAGTAAACAAATTTTCCTAATCTTTCTGTTCAAGCGCCATCTAC	1.06 RPM ratio (pull-down/input)
GATGATTGTTCTCCCAGCTGATGAATTAGAACTATCGAGTAAACAAATTTTCCTAATCTTTCTGTTCAAGCGCCATCTAC	0.938 RPM ratio (pull-down/input)
GATGATTGTTCTCCCAGCTGATGAATTTACCGTGTCGAGTAAACAAATTTTCCTAATCTTTCTGTTCAAGCGCCATCTAC	1.12 RPM ratio (pull-down/input)
GATGATTGTTCTCCCAGCTGATGAATTAACACTGTCGAGTAAACAAATTTTCCTAATCTTTCTGTTCAAGCGCCATCTAC	1.01 RPM ratio (pull-down/input)
GATGATTGTTCTCCCAGCTGATGAATTCTGGCAATCGAGTAAACAAATTTTCCTAATCTTTCTGTTCAAGCGCCATCTAC	1.01 RPM ratio (pull-down/input)
GATGATTGTTCTCCCAGCTGATGAATTCCAGACTTCGAGTAAACAAATTTTCCTAATCTTTCTGTTCAAGCGCCATCTAC	0.779 RPM ratio (pull-down/input)
GATGATTGTTCTCCCAGCTGATGAATTCTAGATTTCGAGTAAACAAATTTTCCTAATCTTTCTGTTCAAGCGCCATCTAC	0.859 RPM ratio (pull-down/input)
GATGATTGTTCTCCCAGCTGATGAATTTCAATAATCGAGTAAACAAATTTTCCTAATCTTTCTGTTCAAGCGCCATCTAC	1.31 RPM ratio (pull-down/input)
GATGATTGTTCTCCCAGCTGATGAATTGTAAGGATCGAGTAAACAAATTTTCCTAATCTTTCTGTTCAAGCGCCATCTAC	1.01 RPM ratio (pull-down/input)
GATGATTGTTCTCCCAGCTGATGAATTACGGTCGTCGAGTAAACAAATTTTCCTAATCTTTCTGTTCAAGCGCCATCTAC	0.9 RPM ratio (pull-down/input)
GATGATTGTTCTCCCAGCTGATGAATTTAAAGCCTCGAGTAAACAAATTTTCCTAATCTTTCTGTTCAAGCGCCATCTAC	0.862 RPM ratio (pull-down/input)
GATGATTGTTCTCCCAGCTGATGAATTACGCCCATCGAGTAAACAAATTTTCCTAATCTTTCTGTTCAAGCGCCATCTAC	1 RPM ratio (pull-down/input)
GATGATTGTTCTCCCAGCTGATGAATTGACTAGTTCGAGTAAACAAATTTTCCTAATCTTTCTGTTCAAGCGCCATCTAC	1.08 RPM ratio (pull-down/input)
GATGATTGTTCTCCCAGCTGATGAATTTTACTGATCGAGTAAACAAATTTTCCTAATCTTTCTGTTCAAGCGCCATCTAC	0.894 RPM ratio (pull-down/input)
GATGATTGTTCTCCCAGCTGATGAATTTAACATGTCGAGTAAACAAATTTTCCTAATCTTTCTGTTCAAGCGCCATCTAC	0.908 RPM ratio (pull-down/input)
GATGATTGTTCTCCCAGCTGATGAATTAAGCGTATCGAGTAAACAAATTTTCCTAATCTTTCTGTTCAAGCGCCATCTAC	1.07 RPM ratio (pull-down/input)
GATGATTGTTCTCCCAGCTGATGAATTATTACTTTCGAGTAAACAAATTTTCCTAATCTTTCTGTTCAAGCGCCATCTAC	1.27 RPM ratio (pull-down/input)
GATGATTGTTCTCCCAGCTGATGAATTATGCCCTTCGAGTAAACAAATTTTCCTAATCTTTCTGTTCAAGCGCCATCTAC	0.986 RPM ratio (pull-down/input)
